Reference: PMC4336329 (PLoS ONE, 2015)
About 2,200 (0.71%) of roughly 310,000 compounds showed an effect of 50% or more. The effect is printed as a negative number. This is one part of the list.

Each molecule was assayed against human ether-à-go-go-related gene (hERG) potassium channel (human, UniProt Q12809) (assay: primary screen, population patch clamp on CHO cells stably expressing hERG).
Chain of human ether-à-go-go-related gene (hERG) potassium channel (Q12809 whole entry, looked up): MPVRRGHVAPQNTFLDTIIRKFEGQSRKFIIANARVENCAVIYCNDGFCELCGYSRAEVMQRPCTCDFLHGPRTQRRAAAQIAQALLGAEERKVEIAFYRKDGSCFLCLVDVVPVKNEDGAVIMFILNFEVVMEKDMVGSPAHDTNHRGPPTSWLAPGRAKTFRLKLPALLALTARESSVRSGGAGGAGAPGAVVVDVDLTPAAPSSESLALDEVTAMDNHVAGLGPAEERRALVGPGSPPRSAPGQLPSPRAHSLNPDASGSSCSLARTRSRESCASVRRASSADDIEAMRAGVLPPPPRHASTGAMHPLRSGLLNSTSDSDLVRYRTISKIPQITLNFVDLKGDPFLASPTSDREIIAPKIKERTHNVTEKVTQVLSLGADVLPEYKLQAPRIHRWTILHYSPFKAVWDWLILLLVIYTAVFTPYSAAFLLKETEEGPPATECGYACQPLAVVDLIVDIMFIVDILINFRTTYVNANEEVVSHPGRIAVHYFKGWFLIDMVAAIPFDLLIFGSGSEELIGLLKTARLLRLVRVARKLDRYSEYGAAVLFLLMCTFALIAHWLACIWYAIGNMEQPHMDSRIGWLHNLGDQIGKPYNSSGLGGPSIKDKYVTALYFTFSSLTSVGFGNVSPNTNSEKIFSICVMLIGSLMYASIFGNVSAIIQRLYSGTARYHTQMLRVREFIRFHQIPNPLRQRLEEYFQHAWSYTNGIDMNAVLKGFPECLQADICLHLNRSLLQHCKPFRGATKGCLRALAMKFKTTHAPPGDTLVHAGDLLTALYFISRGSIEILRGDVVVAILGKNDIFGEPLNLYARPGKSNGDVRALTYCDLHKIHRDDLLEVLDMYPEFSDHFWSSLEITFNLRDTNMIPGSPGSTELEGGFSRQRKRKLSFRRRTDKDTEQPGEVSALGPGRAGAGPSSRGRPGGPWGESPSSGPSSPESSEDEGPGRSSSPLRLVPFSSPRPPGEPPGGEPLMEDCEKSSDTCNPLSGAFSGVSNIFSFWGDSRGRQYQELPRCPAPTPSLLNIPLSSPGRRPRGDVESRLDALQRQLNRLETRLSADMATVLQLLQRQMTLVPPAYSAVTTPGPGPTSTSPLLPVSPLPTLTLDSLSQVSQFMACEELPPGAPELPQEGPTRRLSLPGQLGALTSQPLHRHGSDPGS

Compound | hERG current change (%, negative = inhibition) at 1uM
C1=CCC(CN2CCNCC2)CC1.O=C(O)C(F)(F)F (stereo not drawn) | 12.6%
Cc1ccc(NC(=O)CSCc2n[nH]c(=O)[nH]2)c(Br)c1 | 12.4%
COCc1cc(C)nc(SCC(=O)Nc2ccc3c(c2)OCCO3)c1C#N | 12.3%
CNC(=O)/C(C#N)=C/c1c(N2CCCCCC2)nc2ccccn2c1=O | 16.2%
Cc1nc2oc3ccccc3c(=O)c2c(=O)n1Cc1ccccc1 | 5.34%
CCc1nc(SCC(=O)Nc2ccc(Br)cn2)n[nH]1 | 13%
CCc1c(C(=O)NNC(=O)Nc2ccc3c(c2)OCO3)csc1C | 0.0107%
CCOc1c2ccc(C(=O)NCCCCc3ccccc3)cc2nn1CC | 6.47%
N#Cc1ccccc1NC(=O)c1cc(=O)c2ccccc2o1 | 7.47%
C[N+]1(C)CC2=Cc3ccccc3CC2C1.[I-] (stereo not drawn) | 14.3%
CC(C)(C)C(=O)Nc1nnc(COc2ccc(Cl)cc2)s1 | -10.4%
O=C(CS(=O)(=O)c1c[nH]c2ccccc12)NC1CCCCC1 | 13.7%
CCN(CC)C1CC(=O)N(c2ccc(Br)cc2)C1=O (stereo not drawn) | 15.4%
CCC(C)NC(=O)C1c2ccccc2C(=O)N(c2ccc(OC)cc2)C1c1ccc(OC)cc1 (stereo not drawn) | 10.6%
Cc1ccc(-c2ccc(/C=N/n3cnnc3)o2)cc1 | 13.8%
CCOc1ccccc1NC(=O)c1ccc(F)c(S(=O)(=O)N2CCC3(CC2)OCCO3)c1 | -7.51%
CCC(=O)Nc1ccc(NCc2ccc(-c3ccccc3)cc2)cc1 | 13.5%
COc1ccc(CCNc2nc(-c3ccco3)cc(C(F)(F)F)n2)cc1OC | 11.8%
CC(=O)Nc1n[nH]c(-c2ccc(C)cc2)c1C | -6.17%
CCCCn1c(CN(C)Cc2ccccc2)nc2c1c(=O)n(C)c(=O)n2C | -11.2%
COc1ccccc1C(C)NC(=O)Cc1ccc(S(=O)(=O)N2CCOCC2)s1 (stereo not drawn) | 10.2%
Cc1ccc(N2CC(C(=O)Nc3ccc(S(=O)(=O)Nc4nccs4)cc3)CC2=O)cc1C (stereo not drawn) | 11.5%
Cc1ccc(SC[C@H](c2ccccc2)N2CCN(CCc3ccccc3)CCC2=O)cc1 | -10.2%

Compound | hERG current change (%, negative = inhibition) at 1uM
O=C(NCN1CCN(c2ccccn2)CC1)c1cnccn1 | 3.35%
Cc1sc2ncnc(Sc3ccccc3C(=O)Nc3ccc(Br)cc3)c2c1C | 5.01%
CC(=O)N1CCc2cc(S(=O)(=O)CCC(=O)Nc3cccc(F)c3)ccc21 | 18.1%
CCSc1nc2sc3c(c2c(=O)[nH]1)CC(C)(CC)OC3 (stereo not drawn) | 18.7%
NC(=O)NOCc1ccccc1 | 5.95%
CCn1c(SCC(=O)N2CCOCC2)nc(O)cc1=O | 18.1%
CC(=O)Nc1ccc(C(=O)Nc2ccc(S(=O)(=O)N3CCCC3)cc2)cc1 | 13.1%
CCOc1ccc(NS(=O)(=O)c2ccc(-c3ccc(=O)[nH]n3)o2)cc1 | 10.9%
CCOC(=O)c1ccc(NC(=O)C2C3C=CC(C3)C2C(=O)O)cc1 (stereo not drawn) | 11.7%
COc1cc(/C=C/c2cccc[n+]2C)ccc1OCC(=O)Nc1ccccc1C.[I-] | 12.5%
C=CCn1c(SCC(=O)NC2CCS(=O)(=O)C2)nnc1-c1ccncc1 (stereo not drawn) | 11.8%
O=C(CN1CCN(S(=O)(=O)N2CCCCCC2)CC1)Nc1ccc(Br)cc1 | -3.27%
COc1cc(NC(=O)C2CCC(CNc3c(N4CCC(C)CC4)c(=O)c3=O)CC2)cc(OC)c1 (stereo not drawn) | 19.1%
COc1cc2c(-c3ccccc3)c(C)oc2cc1/C=N/NC(N)=S | 12.6%
CCc1nnc(NS(=O)(=O)c2ccc(N=Cc3c(O)n(-c4ccc(Cl)cc4)c(=O)[nH]c3=O)cc2)s1 | 1.63%
O=C(c1ccc2c(c1)OCO2)N1CCCN(C(=O)c2ccc3c(c2)OCO3)CC1 | 12.7%
Nc1c(C(=O)Nc2ccccc2)c2nc3ccccc3nc2n1CCCN1CCOCC1 | 11.9%
CCCCCC1CC(CC(=O)NC(=S)Nc2ccc([N+](=O)[O-])cc2)C(=O)O1 (stereo not drawn) | 3.85%
COc1ccc(CNC(=O)C2CCCN(S(=O)(=O)c3cnc[nH]3)C2)cc1 (stereo not drawn) | 13.6%
CCCc1cnc(N2CCN(S(C)(=O)=O)CC2)nc1 | 9.78%
COc1ccc(-n2c(COc3ccc(C)cc3)n[nH]c2=S)cc1 | 10.5%
C=CCOC(=O)C1=C(C)NC(=O)NC1c1cc2c(cc1Br)OCO2 (stereo not drawn) | 3.81%
COC(=O)CC1(c2cccc3ccccc23)C(=O)c2ccccc2C1=O | 13.9%

Compound | hERG current change (%, negative = inhibition) at 1uM
O=C(Nc1ccc2c(c1)OCCO2)C1CCCN1C(=O)Nc1ccccc1 (stereo not drawn) | 15.5%
Cc1ccccc1-c1nc(CS(=O)(=O)CC(=O)NCCCN2CCCC2)c(C)o1 | 3.82%
COc1ccc2c(C)cc(SCC(=O)Nc3c(C)n(C)n(-c4ccccc4)c3=O)nc2c1 | -13.4%
COc1ccc(-n2nc(C(=O)O)c3ccccc3c2=O)c(OC)c1 | 1.83%
CC1(C)CC(=O)C(C=Nc2cccnc2)=C(O)C1 | 9.97%
Cc1ccc(S(=O)(=O)N2CCC(C(=O)Nc3ccccc3N3CCCCC3)CC2)cc1 | 13.6%
O=C(CNC(=O)c1ccccc1F)Nc1ccc2c(c1)CCC2 | 8.7%
CCOC(=O)CSc1nc(-c2ccc(OC)cc2)ns1 | 7.52%
CCCCCCCCc1nc(SCC(C)=O)n[nH]1 | 8.81%
COC1=C/C(=C/c2c(N)n3nc(CC(=O)N4CCOCC4)sc3nc2=O)C=CC1=O | -2.6%
O=C(c1cccnc1)N1CCCc2ccccc21 | 10.5%
Cc1ccn(S(=O)(=O)c2ccc(C(C)(C)C)cc2)n1 | 4.21%
CC(C)[C@H]1COCCS(=O)(=O)N1Cc1ccccc1 | 14.2%
CCCCn1c(N)c(N(CCOC)C(=O)c2ccc(N(C)S(=O)(=O)c3ccc(C)cc3)cc2)c(=O)[nH]c1=O | 6.19%
O=C(NCc1ccco1)c1cnn2cccnc12 | 7.77%
CSCCC(NC(=O)c1ccc(C(C)(C)C)cc1)C(=O)OCC(=O)N1CCCC1=O (stereo not drawn) | 18.3%
O=C(OCc1ccccc1)C1=NNC2C(=O)N(c3ccc(Br)cc3)C(=O)C12 (stereo not drawn) | 7.43%
CO/N=C\C(=N\Nc1ccc(OC)cc1)C(=O)c1ccccc1 | 17.7%
CC(C)C[C@H](N)c1nnc(SCc2ccc(Cl)cc2)o1.Cl | 13%
O=C(NCCSc1ccccc1)c1ccc(CN2CCOCC2)cc1 | -4.11%
CCc1cc(C(=O)NNC(=S)NCC2CCCO2)cs1 (stereo not drawn) | -0.997%
CCn1c(C(C)NC(=O)c2ccc(Cl)cc2)n[nH]c1=S (stereo not drawn) | 12.8%
Cc1ccc(S(=O)(=O)NCCSc2nnnn2C)cc1 | 0.0241%

Compound | hERG current change (%, negative = inhibition) at 1uM
C=C(C)C1CC=C(C)/C(=N/NC(=O)COc2cccc(C)c2)C1 (stereo not drawn) | -2.43%
COc1ccc(Nc2nc3ccccc3s2)cc1 | 13.2%
COc1ccc(Cc2nc3ccc(C(=O)N4CCC[C@H]4CO)cc3o2)cc1 | 10.9%
Cc1c(C)n(Cc2ccccc2)c2ncnc(NCCCO)c12 | 10.3%
CCCCC/C=C/C1=CC(=O)C[C@H](c2ccc(OC)cc2)C1 | 8.54%
CCCCn1c(N)c(N(CC(C)C)C(=O)c2cccc(OCc3ccccc3)c2)c(=O)[nH]c1=O | 16.4%
CC(=O)c1c(C)n([O-])c2ccccc2[n+]1=O | 11.2%
N#Cc1cc([N+](=O)[O-])ccc1NC(=O)COC(=O)C1CC2CCCC(C1)C2=O (stereo not drawn) | -0.123%
CCc1nc(SCC(=O)NCCc2ccccc2)c2c(=O)n(C)c(=O)n(C)c2n1 | -7.58%
CCN(C(=O)CSc1ncccc1C(=O)Oc1cccc([N+](=O)[O-])c1)c1cccc(C)c1 | 4.46%
C=CCOc1c(Br)cc(/C=C(\C#N)C(N)=O)cc1OC | 1.67%
O=C(NCC(=O)N(c1ccc(F)cc1)C(C(=O)NC1CCCCC1)c1cccnc1)c1ccco1 (stereo not drawn) | 13%
COc1cccc(/C=C2\Oc3cc(OC(=O)N4CCOCC4)ccc3C2=O)c1 | 14.1%
CC(C)Cn1c(=O)c(C(=O)NCc2ccc3c(c2)OCO3)c(O)c2ccccc21 | 14.7%
CC(=O)Nc1ccc(OCc2cnc(Cl)s2)cc1 | 9.07%
COc1ccccc1CNC(=O)Cn1cc([N+](=O)[O-])ccc1=O | 16.9%
O=C(NC1CCCc2ccccc21)c1ccc(Br)cc1 (stereo not drawn) | 8.5%
O=C(NCc1cccnc1)C(=O)C1C(=O)Nc2ccccc21 (stereo not drawn) | 8.93%
CCCOc1ccc(CNC(=O)c2ccc3c(c2)N(CC)CCS3)cc1 | -7.53%
O=C(OCC(=O)N1c2ccccc2Sc2ccccc21)C1CC(=O)N(Cc2ccco2)C1 (stereo not drawn) | 11.1%
O=c1[nH]c2ccc(F)cc2[nH]c1=O | 16.1%
